Among all 360,000 compounds or so, about 7,500 (2.1%) were called active. This list was built around the results that the source calls inconclusive (neither active nor inactive); the mix of calls is not that of the screen. The call rests on the fitted dose curve; in most records, active means well fitted cell-killing curve with a large enough effect; inconclusive means small, poorly fitted or top-dose-only effect, or effect the other way, or another doubt; inactive means no such curve, though single readings can be large or run the other way. Potencies of inconclusive entries are left out as doubtful fits.
Experiment: qHTS for induction of synthetic lethality in tumor cells producing 2HG: qHTS for the HT-1080-IDH1KD cell line;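 on activity, negative = toxicity: 0% = DMSO wells and -100% = cell-free medium wells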
Conditions: HT-1080 IDH1 knockdown viability, ATP luminescence, 48 h; activity, negative = toxicity: at 46.1 µM (top of the series) unless noted
Outline: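 Assay cells: HT-1080 with IDH1 knockdown, 750 per well, RPMI/5% FBS. Exposure: 48 h at 37 °C following 2 h pre-incubation. Read: CellTiter-Glo luminescence; fitted concentration-response, curve class assigned.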
Potency means the concentration at half of the fitted maximal effect; tags describe the fitted curve by direction and shape.

| SMILES | activity, negative = toxicity | Potency |
| --- | --- | --- |
| CCOC(=O)N1CCN(S(=O)(=O)c2cc(OCC(=O)NC3CCCCC3)c(C)cc2Cl)CC1 | inactive: -7.25% |  |
| CCC(C)(C)n1nnnc1C(c1ccc(C)cc1)N(Cc1ccco1)Cc1cccs1 (stereo not drawn) |  | inconclusive [cytotoxic, single point] |
| CN(C)CCCN(C(=O)c1cc(Cl)sc1Cl)c1nc2cc3c(cc2s1)OCO3 |  | inconclusive [cytotoxic, single point] |
| Cc1cc(F)ccc1-c1cc(C(=O)N2CCN(c3ccncc3)CC2)[nH]n1 | inactive: -7.68% |  |
| Cc1cccc(C)c1NC(=O)C(C1CC1)n1c(=O)c(-c2cc3ccccc3[nH]2)nc2ccccc21 (stereo not drawn) |  | inconclusive [cytotoxic, single point] |
| COc1ccccc1-c1n[nH]c2c1[C@H](C)CC[C@H]2C(C)C |  | inconclusive [cytotoxic, single point] |
| C[C@]12c3[nH]c4cc(-c5ccco5)ccc4c3CCN1C(=O)[C@@H](CC(=O)NCC13CC4CC(CC(C4)C1)C3)C[C@@H]2C(=O)N1CCCCC1 |  | inconclusive [cytotoxic, single point] |
| COCCNC(=O)C1CCC(Cn2c(=S)[nH]c3ccccc3c2=O)CC1 (stereo not drawn) | inactive: -9.24% |  |
| O=C(Nc1cccnc1)c1sc(Nc2ccccc2)nc1-c1ccccc1 | inactive: -0.756% |  |
| Cn1nc(C(F)(F)F)c(-c2ccc(Br)cc2)c1NC(=O)Nc1ccc(F)cc1F |  | active: 18.4 µM |
| Cc1ccc(C(=O)/C=C/c2cn(CN3CCN(C)CC3)c3ccccc23)cc1 |  | inconclusive [cytotoxic, single point] |
| O=C(COC(=O)COc1ccccc1)NCCC1=CCCCC1 | inactive: -5.01% |  |
| Cc1cccc(NC(=S)N/N=C/c2ccc(Cl)c([N+](=O)[O-])c2)c1 | inactive: -9.6% |  |
| Cc1ccc(Cn2nnc3c(=O)[nH]c(C4CCN(S(=O)(=O)c5cc(C)ccc5C)CC4)nc32)cc1 |  | inconclusive [cytotoxic, single point] |
| COc1ccc(-c2cn3cc(C(=O)NN)ccc3n2)cc1 |  | inconclusive [cytotoxic, single point] |
| CCCc1ccc(C(=O)NC(=O)c2ccccc2O)cc1 |  | inconclusive [cytotoxic, full curve] |
| COc1ccc(NC(=O)c2cnc(SC)nc2C)c(OC)c1 | inactive: 1.25% |  |
| CCOc1ccc(CCNC(=O)COC(=O)c2cc(OC)cc(OC)c2)cc1OCC | inactive: -3.41% |  |
| Cn1c(=O)[nH]c(=O)c2c1[nH]c(=S)n2Cc1ccccc1 | inactive: 3.8% |  |
| COCCCNCCC(CCC(C)C)c1ccc2c(c1)OCO2 (stereo not drawn) |  | active: 14.6 µM |
| C[C@H]1CN([C@@H](C)CO)C(=O)c2cc(Br)cnc2O[C@@H]1CN(C)C(=O)CN(C)C | inactive: 9.05% |  |
| CN(Cc1cn(C)nc1-c1ccccc1F)CC1CCN(Cc2ccccc2)CC1 |  | inconclusive [cytotoxic, single point] |
| Cc1ccc(Cl)cc1NC(=O)CN1C(=O)NC(C)(C2CC2)C1=O (stereo not drawn) | inactive: 0.393% |  |
| CN(c1ccc(F)cc1)S(=O)(=O)c1ccc(Cl)c(C(=O)NCC(c2ccco2)N2CCCCC2)c1 (stereo not drawn) | inactive: -6.65% |  |
| c1ccc2c(c1)CSc1sccc1C2=C1CCNCC1 |  | inconclusive [cytotoxic, single point] |

| SMILES | activity, negative = toxicity | Potency |
| --- | --- | --- |
| CCOC(=O)c1ccc(NC(=O)COc2ccccc2CNCCc2ccccc2)cc1 |  | inconclusive [cytotoxic, single point] |
| O=C(O)c1cn(C2CC2)c2cc(N3CCN(S(=O)(=O)c4ccc5c(c4)OCCO5)CC3)c(F)cc2c1=O |  | inconclusive [cytotoxic, single point] |
| COc1ccc(-c2nc3c(C)cc(Br)cn3c2Cc2ccc(C)cc2)cc1OC |  | inconclusive [cytotoxic, single point] |
| CCCNS(=O)(=O)/C=C/c1ccccc1 | inactive: 0.903% |  |
| CCN(C(=O)c1cc2c(=O)[nH]c3ccc(C)cc3c2s1)c1ccccc1C | inconclusive: -31.1% [cytotoxic] |  |
| CCOC(=O)c1c(NC(=O)c2cccs2)sc(CC)c1-c1cccs1 |  | inconclusive [cytotoxic, single point] |
| OC(c1ccccc1)(c1nc(-c2ccc3ccccc3c2)cs1)C(F)(F)F (stereo not drawn) |  | inconclusive [cytotoxic, single point] |
| C=CCSc1nc2ccccc2n1C(=O)/C=C/c1ccc(OC)c(OC)c1 |  | active: 2.51 µM |
| COc1cccc(/C=N/NC(N)=S)c1OCc1ccccc1Cl |  | inconclusive [cytotoxic, single point] |
| COc1ccc(C(N)c2csc(Nc3nncc4ccccc34)n2)cc1 (stereo not drawn) |  | inconclusive [cytotoxic, single point] |
| O=C(O)c1ccccc1Nc1ccc([N+](=O)[O-])c2nonc12 |  | inconclusive [cytotoxic, partial curve] |
| O=C(CSc1ccccc1)Nc1ccc(-c2nc3ccccc3[nH]2)cc1 |  | inconclusive [cytotoxic, partial curve] |
| CCC(C)(C)n1nnnc1C(c1cc(OC)c(OC)c(OC)c1)N1CCN(c2ccccc2)CC1 (stereo not drawn) | inactive: 10.9% |  |
| CC(=O)Nc1sc(C)c(C)c1CN1CCN(Cc2ccccc2)CC1 |  | inconclusive [rising, single point] |
| Nc1[nH]c(C(=O)c2ccccc2)c(-c2cccnc2)c1C(=O)NC1CCCCC1 | inactive: 5.82% |  |
| COc1ccc(CCNC(=O)c2ccc(CNS(=O)(=O)c3cc(C)ccc3C)cc2)cc1OC |  | inconclusive [cytotoxic, single point] |
| O=C(NCCNc1ccc([N+](=O)[O-])cc1)c1cccc2c(Br)cccc12 |  | inconclusive [cytotoxic, single point] |
| COc1ccc(CCN2C(=O)CCC3=C2CCCC3=O)cc1OC | inactive: 8.64% |  |
| CCCS/C(N)=N/N=C/c1ccccc1O | inactive: -8.19% |  |
| Cc1cccn2c(=O)c(C=O)c(N3CCCCCC3)nc12 |  | inconclusive [cytotoxic, single point] |
| COC(=O)[C@]12CCCCC=C1N(CCC1=CCCCC1)C(=O)[C@H](CC(=O)NCc1ccc(C)o1)C2 |  | inconclusive [cytotoxic, single point] |
| O=C(Nc1ccc(Cl)cn1)C1CCCN(c2ncnc3c2nc2n3CCCCC2)C1 (stereo not drawn) | inactive: 12% |  |
| CCC(c1nnnn1Cc1ccco1)N(CCc1ccccc1)Cc1cc2cc(C)ccc2[nH]c1=O (stereo not drawn) | inconclusive: -31.5% [cytotoxic] |  |
| CCCOC(=O)c1ccc(Oc2cn[nH]c2-c2ccc(OCC)cc2O)cc1 |  | inconclusive [cytotoxic, single point] |
| COc1ccccc1C(=O)NC(=O)COC(=O)CNC(=O)c1ccccc1F | inactive: 9.24% |  |

| SMILES | activity, negative = toxicity | Potency |
| --- | --- | --- |
| Cc1cccc(N2CCN(C(=S)c3ccc4c(c3)OCO4)CC2)c1 |  | inconclusive [cytotoxic, full curve] |
| COc1ccc(OC)c(NC(=O)Nc2nc(CN)cs2)c1 | inactive: 2.73% |  |
| COc1ccccc1OCc1nnc(SCC(=O)Nc2ccc(N3CCOCC3)cc2)n1C | inactive: 9.91% |  |
| C/C(CC(=O)NCc1ccco1)=N\NC(=O)COc1ccc(Cl)cc1Cl |  | inconclusive [cytotoxic, partial curve] |
| Cc1ccc(C(=O)N/C(=C\c2ccc(-c3ccc(Br)cc3)o2)C(=O)NCCCN(C)C)cc1 |  | active: 23.1 µM |
| O=C(Nc1cccc(Cl)c1)c1ccc(OC(=S)N2CCOCC2)cc1 |  | inconclusive [cytotoxic, partial curve] |
| CC(=O)/C=C/n1c(=S)oc2ccccc21 |  | active: 5.17 µM |
| CCOC(=O)c1c(-c2ccc(OC)cc2)oc2ccc(O)cc12 |  | inconclusive [cytotoxic, single point] |
| Cc1cccc(C)c1NC(=O)C(c1ccncc1)n1c(=O)c(-c2cc3ccccc3[nH]2)nc2ccccc21 (stereo not drawn) |  | active: 18.4 µM |
| CCOC(=O)c1c(CSC(=N)N)n(C)c2cc(Br)c(OC(C)=O)cc12 |  | inconclusive [cytotoxic, single point] |
| C=CCN(Cc1ccc(OC)c(OC)c1)C(=O)c1cc2cc(F)ccc2[nH]1 |  | inconclusive [cytotoxic, partial curve] |
| O=C(N/N=C/c1cc(Br)c(O)c(Br)c1O)c1ccc2c(c1)OCCO2 |  | inconclusive [cytotoxic, full curve, poor fit] |
| CN1C(=O)/C(=C\C(=O)c2cccs2)c2ccccc21 |  | inconclusive [cytotoxic, full curve, poor fit] |
| C/C(=N\NC(=O)c1cc(C)nc2ccccc12)c1ccc([N+](=O)[O-])cc1 | inactive: -25% |  |
| COc1cc(F)ccc1-c1csc(C(NC(C)=O)c2cccc(F)c2)n1 (stereo not drawn) | inactive: 2.19% |  |
| CCN(CC)c1ccc(/C=N/NC(=O)c2ccco2)cc1 |  | active: 2.59 µM |
| Cc1ccc(NC(=O)c2ccc(CSc3ccccn3)cc2)cc1 | inactive: -18.4% |  |
| CCCNC(=O)c1ccccc1NC(=O)c1ccccc1N(C)S(=O)(=O)c1ccccc1 | inactive: -11.4% |  |
| COc1ccc(CNC(=O)c2cc(SC)ccc2Cl)cc1OC |  | inconclusive [cytotoxic, single point] |
| COc1cc2c(cc1O)CC[C@@H]1[C@@H]2CC[C@]2(C)[C@@H](O)CC[C@@H]12 |  | inconclusive [cytotoxic, full curve] |
| CCN(CC)C(=O)CSC(=Nc1ccccc1F)NC#N | inactive: 6.95% |  |
| CCOC(=O)N(C)c1c(CC)nc2c(OCc3ccc(C(F)(F)F)cc3)cccn12 |  | inconclusive [cytotoxic, single point] |
| O=C(COc1ccccc1C(=O)c1cnn(-c2ccccc2)c1)Nc1ccccc1 |  | inconclusive [cytotoxic, single point] |

Reference: PubChem BioAssay AID686971 (National Center for Advancing Translational Sciences (NCATS), 2013)
